According to PubChem BioAssay AID894 (National Center for Advancing Translational Sciences (NCATS), 2007):
The whole screen tested about 150,000 compounds, of which about 6,500 (4.3%) were called active. Inconclusive means that the source gave no clear call. Such entries were picked first, then a sample of the others. The call rests on the fitted dose curve; in most records, active means well fitted inhibition curve with a large enough effect (not every such curve was filed as active); inconclusive means small, poorly fitted or top-dose-only effect, or another doubt; inactive means no such curve, though single readings can be large or run the other way. A potency beside an inconclusive call is a rough fit, not a confirmed value.

biological target: 15-hydroxyprostaglandin dehydrogenase [NAD(+)] (Homo sapiens) (UniProt P15428); experiment: qHTS Assay for Inhibitors of HPGD (15-Hydroxyprostaglandin Dehydrogenase); conditions: purified HPGD, NADH fluorescence kinetic, PGE2 substrate; activity change, negative = inhibition: stronger effect = lower value
Method in brief: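 NADH formation kinetics: reaction with 30 uM PGE2 and 1 mM NAD+ (final), 20 nM enzyme, Tris-HCl pH 8 with Tween 20, after 15 min compound preincubation at room temperature. Fluorescence change, last versus first of five reads.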
On the % scale 0 is the no-effect control and ±100 the full control effect; potency means the concentration at half of the fitted maximal effect; tags describe the fitted curve by direction and shape.

UniProt P15428, sequence (P15428 whole entry, looked up): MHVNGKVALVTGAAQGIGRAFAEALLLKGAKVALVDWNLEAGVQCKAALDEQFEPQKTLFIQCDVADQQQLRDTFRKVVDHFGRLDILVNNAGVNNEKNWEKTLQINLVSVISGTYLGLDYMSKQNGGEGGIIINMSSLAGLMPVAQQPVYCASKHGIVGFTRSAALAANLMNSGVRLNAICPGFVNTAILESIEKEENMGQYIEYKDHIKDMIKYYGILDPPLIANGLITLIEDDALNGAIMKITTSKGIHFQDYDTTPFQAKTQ

Potency, inconclusive:
CC1(C)CC(=O)C2=C(C1)N(CCN1CCOCC1)C1=C(C(=O)CC(C)(C)C1)C2c1cccc(Cl)c1 31.6 µM [inhibitor, partial curve]
Cc1ccc(C)c(Cc2c(C)nc3c(C(=O)N4CCOCC4)cnn3c2C)c1 28.2 µM [inhibitor, partial curve]
N#Cc1nc(-c2ccc(OCc3ccccc3)cc2)oc1NCCCn1ccnc1 31.6 µM [inhibitor, partial curve]
CCOc1ccc2nc3cc(N)ccc3c(N)c2c1 25.1 µM [inhibitor, partial curve]
Cc1ccc(C(=O)/C=C/C(=O)O)cc1 25.1 µM [inhibitor, partial curve]
CS(=O)(=O)Nc1ccc(C2=NN(S(C)(=O)=O)C(c3ccccc3)C2)cc1 (centres undefined) 28.2 µM [inhibitor, partial curve]
CCOC(=O)N1CCC(NC(=O)c2ccc3c(c2)N(Cc2ccc(F)cc2)CCS3)CC1 14.1 µM [inhibitor, partial curve]
Cc1ccc(-c2c(C#N)c(N)nc3c2CCCCC3)cc1 28.2 µM [inhibitor, partial curve]
COC(=O)c1ccccc1NC(=O)CSc1nc(NC(=O)c2ccccc2)c2c(C)c(C)oc2n1 31.6 µM [inhibitor, partial curve]
CCOC(=O)Cn1c(C(F)(F)F)nc2nc(Cl)c(Cl)nc21 2.51 µM [inhibitor, partial curve]
COc1ccc(C(=O)Nc2ccc(Cl)cc2C(=O)NCc2ccco2)cc1 35.5 µM [inhibitor, partial curve]

Potency, active:
Cc1ccc(S(=O)(=O)/N=C2/NC(=O)/C(=C/c3cccnc3)S2)cc1 20 µM
CC(=O)N1CCc2cc(NS(=O)(=O)c3cccs3)ccc21 25.1 µM
Cc1c(-c2ccccc2)sc(N)c1C(=O)N1CCOCC1 8.91 µM

Activity change, negative = inhibition, inactive:
O=c1c(O)c(-c2ccc(O)c(O)c2)oc2ccccc12 -16.4%
COc1cc(C)ccc1OCCOCCOc1ccccc1[N+](=O)[O-] -16.7%
O=C(O)/C=C\C(=O)Nc1ccc2c(c1)C(=O)c1cc(F)ccc1-2 -3.71%
CCOC(=O)/C(=N/Nc1ccc(Cl)cc1)Sc1nnnn1-c1ccc(C)cc1 -11.4%
O=C(Nc1ccc(Cl)c(Cl)c1)Nc1ccc(N2CCCC2)c(S(=O)(=O)Nc2ccccc2Cl)c1 -11.7%
